{"source": "the supplement of paper PMC11166567", "note": "The other results are listed elsewhere or left out.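 The calls were made as follows: active = permutation test q below 0.05 after Benjamini-Hochberg correction; inactive = q of 0.05 or more.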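 Also: cosine similarity of well-level aggregated Cell Painting profiles ranks each compound's replicate wells against DMSO wells, four replicate plates, significance from 100,000 rank shuffles.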", "data": [{"system": "U2OS", "test": "mean average precision of replicate retrieval against DMSO controls (Cell Painting phenotypic activity) (fraction (0-1)); higher = stronger, more reproducible morphological phenotype distinct from DMSO; extreme values may be limits of the assay", "conditions": "24 h; 5 µM", "values": [{"compound": "NC(=NCc1ccccc1)NC(=O)c1nc(Cl)c(N)nc1N", "mean average precision": "active: 0.89"}, {"compound": "N#CC[C@H](C1CCCC1)n1cc(-c2ncnc3[nH]ccc23)cn1", "mean average precision": "active: 1"}, {"compound": "CN[C@H]1C(=O)N[C@@H]2Cc3ccc(cc3)Oc3cc4cc(c3O[C@@H]3O[C@H](C(=O)O)[C@@H](O)[C@H](O)[C@H]3NC(=O)CCCCCCCCC(C)C)Oc3ccc(cc3Cl)[C@@H](O)[C@@H]3NC(=O)[C@H](NC(=O)[C@@H]4NC(=O)[C@@H](NC2=O)c2cc(cc(O)c2Cl)Oc2cc1ccc2O)c1ccc(O)c(c1)-c1c(O[C@H]2O[C@H](CO)[C@@H](O)[C@H](O)[C@@H]2O)cc(O)cc1[C@@H](C(=O)NCCCN(C)C)NC3=O", "mean average precision": "inactive: 0.306"}, {"compound": "NC(=O)N1CCC(CC(=O)N2CCC([C@H]3c4ncc(Br)cc4CCc4cc(Cl)cc(Br)c43)CC2)CC1", "mean average precision": "active: 0.948"}, {"compound": "OC[C@H]1O[C@@H](n2cnc3c(NC4CCCC4)ncnc32)[C@H](O)[C@@H]1O", "mean average precision": "active: 0.354"}, {"compound": "CN1CCc2nc(C(=O)N[C@H]3C[C@H](C(=O)N(C)C)CC[C@@H]3NC(=O)C(=O)Nc3ccc(Cl)cn3)sc2C1", "mean average precision": "active: 0.336"}, {"compound": "OC[C@H]1O[C@@H](Oc2cc(O)cc(/C=C/c3ccc(O)cc3)c2)[C@H](O)[C@@H](O)[C@@H]1O", "mean average precision": "active: 1"}, {"compound": "CC(C)[C@H]1c2ccc(F)cc2CC[C@@]1(CCN(C)CCCc1nc2ccccc2[nH]1)OC(=O)C1CC1", "mean average precision": "active: 1"}, {"compound": "O=C(CCNNC(=O)c1ccncc1)NCc1ccccc1", "mean average precision": "inactive: 0.251"}, {"compound": "O=C(O)CC(O)(CC(=O)O)C(=O)O", "mean average precision": "inactive: 0.281"}, {"compound": "CC(NC(=O)CCc1nc2ccccc2c(=O)[nH]1)c1ccccc1", "note": "(stereo unspecified)", "mean average precision": "inactive: 0.261"}, {"compound": "COC(=O)C1=C(C)NC(C)=C(C(=O)OC(C)(C)CN(C)CCC(c2ccccc2)c2ccccc2)C1c1cccc([N+](=O)[O-])c1", "note": "(stereo unspecified)", "mean average precision": "active: 0.8"}, {"compound": "Cc1ccc(C(=O)Nc2ccc(CN3CCN(C)CC3)c(C(F)(F)F)c2)cc1C#Cc1cnc2cccnn12", "mean average precision": "active: 1"}, {"compound": "CCCCC[C@H](O)/C=C/[C@H]1[C@H](O)CC(=O)[C@@H]1C/C=C\\CCCC(=O)O", "mean average precision": "inactive: 0.272"}, {"compound": "CCCCC[C@H](O)/C=C/[C@@H]1[C@H]2C/C(=C/CCCC(=O)O)O[C@H]2C[C@H]1O", "mean average precision": "active: 0.581"}, {"compound": "CC(=O)N[C@@H](CS)C(=O)O", "mean average precision": "active: 0.561"}, {"compound": "Cc1cc(-c2nc(-c3ccc(OC(F)(F)F)cc3)no2)nn1Cc1ccnc(N2CCN(C3CC3)CC2)c1", "mean average precision": "active: 0.636"}, {"compound": "O=C(O)CN1C(=O)c2cccc3cccc(c23)C1=O", "mean average precision": "active: 0.463"}, {"compound": "C=C(NC(=O)C(=C)NC(=O)c1csc(C2=N[C@@H]3c4csc(n4)[C@H]4NC(=O)c5csc(n5)[C@H]([C@](C)(O)[C@@H](C)O)NC(=O)[C@H]5CSC(=N5)/C(=C/C)NC(=O)[C@H]([C@@H](C)O)NC(=O)c5csc(n5)[C@]3(CC2)NC(=O)[C@H](C)NC(=O)C(=C)NC(=O)[C@H](C)NC(=O)[C@H]([C@@H](C)CC)N[C@@H]2C=Cc3c([C@H](C)O)cc(nc3[C@H]2O)C(=O)O[C@@H]4C)n1)C(N)=O", "mean average precision": "active: 1"}, {"compound": "CC(C)C(=O)c1c(C(C)C)nn2ccccc12", "mean average precision": "active: 1"}, {"compound": "O=C(NCCS(=O)(=O)c1ccc(C(F)(F)F)cn1)c1ccc(Cl)cc1", "mean average precision": "active: 0.314"}, {"compound": "Cc1nc2n(c(=O)c1CCN1CCC(c3noc4cc(F)ccc34)CC1)CCCC2O", "note": "(stereo unspecified)", "mean average precision": "inactive: 0.255"}, {"compound": "C/C=C(/C)C(=O)O[C@H]1C(C)=C[C@]23C(=O)[C@@H](C=C(CO)[C@@H](O)[C@]12O)[C@H]1[C@@H](C[C@H]3C)C1(C)C", "mean average precision": "active: 1"}, {"compound": "Cc1cc(Cl)ccc1OCCCC(=O)NO", "mean average precision": "active: 0.979"}, {"compound": "NCC(=O)Nc1ccc(-n2nc(C(F)(F)F)cc2-c2ccc3c(ccc4ccccc43)c2)cc1", "mean average precision": "active: 1"}, {"compound": "Cc1ccc(/C=C2\\CNC/C(=C\\c3ccc(C)cc3)C2=O)cc1", "mean average precision": "active: 1"}, {"compound": "CC(C)(C)n1nc(-c2ccc(Cl)cc2)c2c(N)ncnc21", "mean average precision": "active: 1"}, {"compound": "Cc1c(C)c2c(c(C)c1O)CC[C@@](C)(CCC[C@H](C)CCC[C@H](C)CCCC(C)C)O2", "mean average precision": "inactive: 0.125"}, {"compound": "CCOC(=O)Nc1ccc(NCc2ccc(F)cc2)nc1N", "mean average precision": "active: 0.826"}, {"compound": "O=C1NC(=O)c2cc(Nc3ccc(F)cc3)c(Nc3ccc(F)cc3)cc21", "mean average precision": "inactive: 0.363"}, {"compound": "CC(C)c1cc(-c2n[nH]c(=O)n2-c2ccc3c(ccn3C)c2)c(O)cc1O", "mean average precision": "active: 1"}]}]}
